The values below come from PubChem BioAssay (NCI).

Several values for one entry are separate records, joined by “and”; a condition that tells them apart may be missing. Identical values can stand only once.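 Growth conditions: 96-well plates. Treatment: test compound, 48 hours, 5 concentrations. Analysis: linear interpolation between bracketing concentrations; unreached endpoints set to highest concentration. The concentration for 50% growth inhibition is given as GI50. At the TGI there is no net growth.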 Numbered stars: 1 amine (or outer) side, 2 acyl side, 3 side chain; on linkers, the order of the positions; unused ones are H or OH. Bridge positions count the residues as written; N and C are the ends. Square brackets hold non-standard residues; d marks the D form. Peptide text beside a SMILES is read from it. * marks the point of attachment. ξ: configuration not given here. Phe(3,5-F2) = N[C@@H](Cc1cc(F)cc(F)c1)C(=O)O; ξThr(3S) = C[C@H](O[*:3])C(N[*:1])C(=O)[*:2]; Pro(4R-Me) = C[C@H]1CN[C@H](C(=O)O)C1; Pip = O=C(O)[C@@H]1CCCCN1; X1 = Cc1ccc(N*)c(F)c1; CO = O=C([*:1])[*:2] Bounds are passed on as bounds.

For the experiment, the system named is NCI-H322M lung. As to the kind of experiment: growth of human tumour cells (NCI), 48 h.
For `C#C[C@]1(O)CC[C@H]2[C@@H]3CC=C4c5sc(Nc6cc(C)cc(C)c6)nc5CC[C@]4(C)[C@H]3CC[C@@]21C`, the GI50 was 7070 nM and the TGI is over 100 µM.

As to `Cc1[nH]nc2ncc(C#Cc3cncc(C(=O)Nc4ccc(CN5CCN(C)CC5)c(C(F)(F)F)c4)c3)cc12`, the GI50 is 214 nM. With `Cc1ccc(NC(=O)N[C@@H](Cc2cc(F)cc(F)c2)C(=O)NC2C(=O)N3CCC[C@H]3C(=O)N3CCCC[C@H]3C(=O)N[C@@H](C)C(=O)N3C[C@H](C)C[C@H]3C(=O)O[C@H]2C)c(F)c1` (stereo partly drawn) ({X1-CO}-[Phe(3,5-F2)][ξThr(3S)]P[Pip]A[Pro(4R-Me)]; ester 2-C), the GI50 is 759 nM and 859 nM; the TGI was 50 µM and > 100 µM. `Cc1ccc(-c2nnc(SCc3ccc(O)c4ncccc34)o2)cc1`: the GI50 was 1080 nM and the TGI is over 100 µM.
